Out of some 410,000 compounds screened, about 5,000 (1.2%) were called active. Inconclusive results, whose numbers are uncertain, are shown with a selection of clear calls. The call rests on the fitted dose curve; in most records, active means well fitted inhibition curve with a large enough effect; inconclusive means small, poorly fitted or top-dose-only effect; inactive means no such curve, though single readings can be large or run the other way. Where the call is inconclusive, the potency comes from a doubtful curve fit.
Test: qHTS for Inhibitors of TGF-b; further: nearly all actives have a fitted effect of over 65% in size
Conditions: HepG2 CAGA-GFP TGF-b/SMAD3 reporter, GFP fluorescence, 18 h, TGF-beta stimulated, 500 pg/mL final; series mostly up to 46.1 µM; activity, negative = inhibition: at the top concentration
Procedure, shortened: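 GFP signal (ex488/em500-530) from TGF-beta-stimulated HEPG2 CAGA-GFP cells, 500 pg/mL final, 18 h at 37 degrees C in DMEM plus 1% FBS, normalized to unstimulated and DMSO-stimulated controls.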
On the % scale 0 is the no-effect control and ±100 the full control effect; potency means the concentration at half of the fitted maximal effect; tags describe the fitted curve by direction and shape.

Compound | Potency | activity, negative = inhibition
CCN(CC)c1ccc(C(=C2C=CC(=[N+](CC)CC)C=C2)c2ccc(N(CC)CC)cc2)cc1 | active: 2.24 µM | –
COc1ccc(-c2onc(C)c2-c2ccc(C(=O)OC(C)C)o2)c(O)c1 | inconclusive: 25.1 µM [inhibitor, single point] | –
COc1cc(C(=O)NC2CC(C)CC(C)(C)C2)cc(OC)c1OC (centres undefined) | inconclusive: 5.01 µM [inhibitor, full curve, poor fit] | –
CCc1ccc(-c2nc(CN3CCC(C(=O)NCCN(CC)c4ccccc4)CC3)c(C)o2)cc1 | – | inactive: 0.83%
O=C(NCCc1ccc(Cl)cc1)C12CC3CC(CC(O)(C3)C1)C2 | – | inactive: 13.2%
Cc1c(Cl)cccc1NC(=O)COC(=O)c1c2c(nc3ccccc13)CCN(Cc1ccccc1)C2 | inconclusive: 35.5 µM [inhibitor, single point] | –
Cc1c([N+](=O)[O-])cnc(Sc2ccccc2)c1[N+](=O)[O-] | active: 12.6 µM | –
COc1cc(Nc2nc3ccc(Cl)cc3nc2-n2nc(C)cc2C)cc(OC)c1 | inconclusive: 35.5 µM [inhibitor, partial curve, poor fit] | –
O=C(Nc1ccc2oc(-c3ccccc3)nc2c1)c1cc(-n2cnnc2)ccc1Cl | inconclusive: 22.4 µM [inhibitor, single point] | –
CC1(c2ccc(Cl)cc2Cl)NC(=O)N(CC(=O)Nc2cccnc2Cl)C1=O (centres undefined) | inconclusive: 3.55 µM [inhibitor, partial curve] | –
CC(C)(C)c1cc(Br)c(O)c(N=Nc2ccc(S(=O)(=O)N3CCOCC3)cc2)c1 | inconclusive: 12.6 µM [inhibitor, partial curve] | –
CC(O)(c1cccc(F)c1)c1nc(-c2csc3ccccc23)cs1 (centres undefined) | active: 12.6 µM | –
COc1ccc(C(=O)NCCc2csc(-c3ccc(Cl)cc3)n2)c(OC)c1 | inconclusive: 14.1 µM [inhibitor, partial curve, poor fit] | –
CCN(CC)C(=O)c1nc[nH]c1C(=O)N(CC)CC | inconclusive: 6.31 µM [inhibitor, partial curve, poor fit] | –
CSCCC(NC(=O)COc1ccccc1)C(=O)N1CCCCCC1 (centres undefined) | – | inactive: -5.14%
CSc1ccc(CCNC(=O)CN2C(=O)COc3ccc(S(=O)(=O)N4CCCCCC4)cc32)cc1 | inconclusive: 35.5 µM [inhibitor, single point] | –
Cc1ccc(Nc2cc(C)nc(NCc3ccccc3)n2)cc1 | inconclusive: 20 µM [inhibitor, single point] | –
FC(F)(F)c1nc(N2CCN(c3ccccc3)CC2)nc2c1CCCCC2 | – | inactive: -5%
COc1ccc(-c2n[nH]c(C)c2-c2cnn(-c3ccccc3)c2)c(O)c1C | active: 12.6 µM | –
